Results reported in patent US5391540A, “Substituted pyridine compounds” (Rohm and Haas Company, priority 1993, dated 1995).
The name of at least one read-out is uncertain. Some compounds share one range, which may span the group rather than tell each member.

Key:
Experiment in all cases: Post-emergence herbicidal activity (Table C)
Assay type in all cases: in vivo
Quackgrass = settings: Rhqg, 11.2 kg/ha, 10-14 days
From the text: (§1) The post-emergent activity is best seen on younger plants treated at the 11/2 to 2 leaf stage. In the tests which follow, larger and more developed plants were used.
(§2) The post-emergent herbicidal activity index used in Table C is as follows:
(§3) Top soil was placed in pans having holes in the bottom and compacted to a depth of 0.95 to 1.27 cm. from the top of the pan. A predetermined number of seeds of each of several dicotyledonous and monocotyledonous annual plant species and/or vegetative propagules for the perennial plant species were placed on the soil and pressed into the soil surface. The seeds and/or vegetative propagules were covered with soil and leveled. The pans were then placed on a bench in the greenhouse and watered as needed for germination and growth. After the plants reached the desired age (two to three weeks), each pan (except the control pans) was moved to a spraying chamber and sprayed by means of an atomizer. The spray solution or suspension contained about 0.4% by volume of an emulsifying agent and a sufficient amount of the candidate chemical to give an application rate of the active ingredient of 11.2 kg/ha while applying a total amount of solution or suspension equivalent to 1870 L/ha. […] The plant identifying codes in Table C are the same as above defined.

Downy Brome = settings: Dobr, 11.2 kg/ha, 10-14 days
From the text: as §1, §2, §3

Rhizome Johnsongrass = settings: Rhjg, 11.2 kg/ha, 10-14 days
From the text: as §1, §2, §3

Velvetleaf = settings: Vele, 11.2 kg/ha, 10-14 days
From the text: as §1, §2, §3

Canada thistle = settings: Cath, 11.2 kg/ha, 10-14 days
From the text: as §1, §2, §3

Yellow Nutsedge = settings: Yens, 11.2 kg/ha, 10-14 days
From the text: as §1, §2, §3

Cocklebur = settings: Cobu, 11.2 kg/ha, 10-14 days
From the text: as §1, §2, §3

Morningglory = settings: Mogl, 11.2 kg/ha, 10-14 days
From the text: as §1, §2, §3

Barnyardgrass = settings: Bygr, 11.2 kg/ha, 10-14 days
From the text: (§4) In the tests which follow, larger and more developed plants were used.
as §2
as §3, with “atomizer.” for “atomizer. The spray solution or suspension contained about 0.4% by volume of an emulsifying agent and a sufficient amount of the candidate chemical to give an application rate of the active ingredient of 11.2 kg/ha while applying a total amount of solution or suspension equivalent to 1870 L/ha.”

Pennsylvania Smartweed = settings: Pesw, 11.2 kg/ha, 10-14 days
From the text: as §1, §2, §3

Common Lambsquarters = settings: Colq, 11.2 kg/ha, 10-14 days
From the text: as §4, §2
as §3, with “atomizer.” for “atomizer. The spray solution or suspension contained about 0.4% by volume of an emulsifying agent and a sufficient amount of the candidate chemical to give an application rate of the active ingredient of 11.2 kg/ha while applying a total amount of solution or suspension equivalent to 1870 L/ha.”

Structure (SMILES) | post-emergent herbicidal activity index (Quackgrass) | post-emergent herbicidal activity index (Downy Brome) | post-emergent herbicidal activity index (Rhizome Johnsongrass) | post-emergent herbicidal activity index (Velvetleaf) | post-emergent herbicidal activity index (Canada thistle) | post-emergent herbicidal activity index (Yellow Nutsedge) | post-emergent herbicidal activity index (Cocklebur) | post-emergent herbicidal activity index (Morningglory) | post-emergent herbicidal activity index (Barnyardgrass) | post-emergent herbicidal activity index (Pennsylvania Smartweed) | post-emergent herbicidal activity index (Common Lambsquarters)
CCSC=Nc1c(C(F)(F)F)nc(OC)c(C(=O)OC)c1CC(C)C [Compound 78, 3-pyridinecarboxylic acid, 5-[[(ethylthio)methylene]amino]-2-methoxy-4-(2-methylpropyl)-6-(trifluoromethyl)-, methyl ester] | 0 (0-24% inhibition) | 0 (0-24% inhibition) | 0 (0-24% inhibition) | 2 (50-74% inhibition) | 0 (0-24% inhibition) | 0 (0-24% inhibition) | 1 (25-49% inhibition) | 1 (25-49% inhibition) | 0 (0-24% inhibition) |  | 
COC(=O)c1c(OC)nc(C(F)(F)F)c(C2=NC(C)(C)CS2)c1CC(C)C [Compound 75, 3-pyridinecarboxylic acid, 5-(4,5-dihydro-4,4-dimethy1-2-thiazolyl)-2-methoxy-4-(2-methylpropyl)-6-(trifluoromethyl)-, methyl ester] | 0 (0-24% inhibition) | 0 (0-24% inhibition) |  | 2 (50-74% inhibition) |  | 0 (0-24% inhibition) | 1 (25-49% inhibition) | 2 (50-74% inhibition) | 2 (50-74% inhibition) | 1 (25-49% inhibition) | 2 (50-74% inhibition)
C#CCOC(=O)c1c(C(F)(F)F)nc(OC)c(C(=O)OC)c1CC(C)C [Compound 82, 3,5-pyridinedicarboxylic acid, 2-methoxy-4-(2-methylpropyl)-6-(trifluoromethyl)-, 3-methyl 5-(2-propynyl)ester] | 0 (0-24% inhibition) | 0 (0-24% inhibition) | 0 (0-24% inhibition) | 1 (25-49% inhibition) | 0 (0-24% inhibition) | 0 (0-24% inhibition) | 1 (25-49% inhibition) | 1 (25-49% inhibition) | 0 (0-24% inhibition) |  | 
COC(=O)c1c(OC)nc(C(F)(F)F)c(C(=O)n2cccn2)c1C1CCC1 [Compound 52, 3-pyridinecarboxylic acid, 4-cyclobutyl-2-methoxy-5-(1H-pyrazo1-1-ylcarbonyl)-6-(trifluoromethyl)-, methyl ester] | 0 (0-24% inhibition) | 0 (0-24% inhibition) | 0 (0-24% inhibition) | 0 (0-24% inhibition) | 0 (0-24% inhibition) | 0 (0-24% inhibition) | 0 (0-24% inhibition) | 1 (25-49% inhibition) | 1 (25-49% inhibition) | 0 (0-24% inhibition) | 
CCOc1nc(C(F)(F)F)c(C(=O)OC)c(CC(C)C)c1C(=O)O [Compound 18, 3,5-pyridinedicarboxylic acid, 2-ethoxy-4-(2-methylpropyl)-6-(trifluoromethyl)-, 5-methyl ester] | 2 (50-74% inhibition) |  | 1 (25-49% inhibition) | 0 (0-24% inhibition) | 0 (0-24% inhibition) | 0 (0-24% inhibition) | 1 (25-49% inhibition) | 1 (25-49% inhibition) | 0 (0-24% inhibition) | 0 (0-24% inhibition) | 
COC(=O)c1c(OC)nc(C(F)(F)F)c(C2=NC(C)CS2)c1CC(C)C (stereo not shown) [Compound 74, 3-pyridinecarboxylic acid, 5-(4,5-dihydro-4-methy1-2-thiazolyl)-2-methoxy-4-(2-methylpropyl)-6-(trifluoromethyl)-, methyl ester] | 0 (0-24% inhibition) | 0 (0-24% inhibition) | 0 (0-24% inhibition) | 1 (25-49% inhibition) | 0 (0-24% inhibition) | 0 (0-24% inhibition) | 1 (25-49% inhibition) | 0 (0-24% inhibition) | 1 (25-49% inhibition) | 0 (0-24% inhibition) | 
CCCCOC(=O)c1c(C(F)(F)F)nc(OC)c(C(=O)OC)c1CC(C)C [Compound 16, 3,5-pyridinedicarboxylic acid, 2-methoxy-4-(2-methylpropyl)-6-(trifluoromethyl)-, 5 butyl 3-methyl ester] | 0 (0-24% inhibition) | 0 (0-24% inhibition) | 0 (0-24% inhibition) | 1 (25-49% inhibition) |  | 0 (0-24% inhibition) | 1 (25-49% inhibition) | 0 (0-24% inhibition) | 0 (0-24% inhibition) | 0 (0-24% inhibition) | 
COC(=O)c1c(OC)nc(C(F)(F)F)c(N=CN(C)C)c1CC(C)C [Compound 62, 3-pyridinecarboxylic acid, 5-[[(dimethylamino)methylene]amino]-2-methoxy-4-(2-methylpropyl)-6-(trifluoromethyl)-, methyl ester] | 0 (0-24% inhibition) | 0 (0-24% inhibition) | 0 (0-24% inhibition) | 0 (0-24% inhibition) | 0 (0-24% inhibition) | 0 (0-24% inhibition) | 0 (0-24% inhibition) | 0 (0-24% inhibition) | 0 (0-24% inhibition) | 0 (0-24% inhibition) | 
COC(=O)c1c(OC)nc(C(F)(F)F)c(C(=O)N2CCCC2)c1CC(C)C [Compound 66, 3-pyridinecarboxylic acid, 2-methoxy-4-(2-methylpropyl)-5-(1-pyrrolidinylcarbonyl)-6-(trifluoromethyl)-, methyl ester] | 0 (0-24% inhibition) | 0 (0-24% inhibition) | 0 (0-24% inhibition) | 0 (0-24% inhibition) | 0 (0-24% inhibition) | 0 (0-24% inhibition) | 0 (0-24% inhibition) | 0 (0-24% inhibition) | 0 (0-24% inhibition) | 0 (0-24% inhibition) | 
